Reference: patent publication US20240352123A1 (UNIVERSITY OF UTAH RESEARCH FOUNDATION, published 2024)

Biological target: T1, recombinant human CD229 (extracellular domain) (human, UniProt Q9HBG7 48-454)
T1 construct: extracellular domain; Bought protein; also called recombinant CD229; recombinant extracellular domain of CD229
T1 sequence (looked up): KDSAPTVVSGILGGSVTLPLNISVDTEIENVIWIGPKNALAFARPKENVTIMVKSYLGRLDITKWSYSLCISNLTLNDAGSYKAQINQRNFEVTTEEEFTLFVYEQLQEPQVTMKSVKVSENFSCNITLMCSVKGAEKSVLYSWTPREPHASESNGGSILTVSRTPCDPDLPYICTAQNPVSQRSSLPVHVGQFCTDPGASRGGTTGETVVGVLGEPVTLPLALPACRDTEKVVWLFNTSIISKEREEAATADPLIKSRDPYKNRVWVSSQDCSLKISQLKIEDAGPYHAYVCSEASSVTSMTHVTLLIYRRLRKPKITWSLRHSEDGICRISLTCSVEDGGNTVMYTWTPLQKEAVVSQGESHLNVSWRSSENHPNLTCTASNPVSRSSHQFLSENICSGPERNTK
Assay: BLI; biotinylated scFv on streptavidin biosensor, recombinant CD229 extracellular domain in solution
Method: (FIG. 3A) Schema of construct used for production of biotinylated 2D3 scFv variants including C-terminal AviTag to facilitate in vivo biotinylation. (FIG. 3B) Schema of biolayer interferometry (BLI) setup used for kinetic characterization of CD229 binding. Biotinylated 2D3 variants were immobilized on streptavidin biosensors and the recombinant extracellular domain of CD229 was added in the following concentrations: 2 μM, 1 μM, 0.5 μM, 0.25 μM. (FIG. 3C) Sensorgrams of 2D3 variants were determined using an Octet K2 (Sartorius). Plots show representative result of two independent experiments. (FIG. 3D) Correlation between rate and equilibrium constants of 2D3 variant scFvs as determined by BLI.
Streptavidin (SA) biosensensors (ForteBio) were hydrated in 1× Octet® Kinetics Buffer (Sartorius) for at least 10 minutes. SA biosensors were loaded using the Octet K2 (Sartorius). A baseline in Octet Kinetics Buffer was collected for 1 minute. […] SA biosensors loaded with 2 nm of biotinylated scFv and blocked with biocytin went through a 60-second baseline read in kinetics buffer, 50-second association in 2, 1, 0.5, and 0.25 μM recombinant human CD229 (R&D Systems) in kinetics buffer, and finally 60-second dissociation in kinetics buffer. […] Data was analyzed using Octet® K2 System Data Analysis 9.0 software.

Kd: 476 nM
B1: 2D3 scFv (wild type) (scFv)
scFv: QVQLVESGGGLVQPGRSLRLSCAASGFTFDDYAMHWVRQAPGKGLEWVSGISWNSGSIGYADSAKGRFTISRDNSKNTLYLQMNSLRAEDTAVYYCAKRGNSNSFDYWGQGTLVTVSSLEGGGGSGGGGSGGGAS[sequence of about 100 residues omitted]
modifications: BLI form: biotinylated in vivo on a C-terminal AviTag. The tag is not in the letters.
notes: The FLAG-tagged scFv from pSANG10 was used in the TRF assays; The AviTag form from pSANG10-Avi, biotinylated in vivo, was used in BLI; Both forms are kept as one molecule here; also called WT (2D3); parental 2D3; not shown: C-terminal tags of the pSANG10 / pSANG10-Avi constructs (FLAG, the tag used for NiNTA purification, AviTag)
